B1: antibody D105N_IgG4PE_R409K_P (antibody)
heavy: QVQLVQSGAEVKKPGASVKVSCKASGYTFTNHYMHWVRQAPGQGLEWMGIINPISGSTSNAQKFQGRVTMTRDTSTSTVYMELSSLRSEDTAVYYCARDIVDAFNFWGQGTMVTVSSASTKGPSVFPLAPCSRSTSESTAALGCLVKDYFPEPVTVSWNSGALTSGVHTFPAVLQSSGLYSLSSVVTVPSSSLGTKTYTCNVDHKPSNTKVDKRV[letters of human IgG4 Fc with S228P L235E V308P R409K (EU numbers) omitted]
light: AIQLTQSPSSLSASVGDRVTITCRASQGISSALVWYQQKPGKAPKLLIYDASSLESGVPSRFSGSGSGTDFTLTISSLQPEDFATYYCQQFNDYFTFGPGTKVDIK
B2: antibody I100A_IgG4PE_R409K_P (antibody)
heavy: QVQLVQSGAEVKKPGASVKVSCKASGYTFTNHYMHWVRQAPGQGLEWMGIINPISGSTSNAQKFQGRVTMTRDTSTSTVYMELSSLRSEDTAVYYCARDAVDAFDFWGQGTMVTVSSASTKGPSVFPLAPCSRSTSESTAALGCLVKDYFPEPVTVSWNSGALTSGVHTFPAVLQSSGLYSLSSVVTVPSSSLGTKTYTCNVDHKPSNTKVDKRV[letters of human IgG4 Fc with S228P L235E V308P R409K (EU numbers) omitted]
light: AIQLTQSPSSLSASVGDRVTITCRASQGISSALVWYQQKPGKAPKLLIYDASSLESGVPSRFSGSGSGTDFTLTISSLQPEDFATYYCQQFNDYFTFGPGTKVDIK
B3: antibody I100H_IgG4PE_R409K_P (antibody)
heavy: QVQLVQSGAEVKKPGASVKVSCKASGYTFTNHYMHWVRQAPGQGLEWMGIINPISGSTSNAQKFQGRVTMTRDTSTSTVYMELSSLRSEDTAVYYCARDHVDAFDFWGQGTMVTVSSASTKGPSVFPLAPCSRSTSESTAALGCLVKDYFPEPVTVSWNSGALTSGVHTFPAVLQSSGLYSLSSVVTVPSSSLGTKTYTCNVDHKPSNTKVDKRV[letters of human IgG4 Fc with S228P L235E V308P R409K (EU numbers) omitted]
light: AIQLTQSPSSLSASVGDRVTITCRASQGISSALVWYQQKPGKAPKLLIYDASSLESGVPSRFSGSGSGTDFTLTISSLQPEDFATYYCQQFNDYFTFGPGTKVDIK
B4: antibody I100Y_IgG4PE_R409K_P (antibody)
heavy: QVQLVQSGAEVKKPGASVKVSCKASGYTFTNHYMHWVRQAPGQGLEWMGIINPISGSTSNAQKFQGRVTMTRDTSTSTVYMELSSLRSEDTAVYYCARDYVDAFDFWGQGTMVTVSSASTKGPSVFPLAPCSRSTSESTAALGCLVKDYFPEPVTVSWNSGALTSGVHTFPAVLQSSGLYSLSSVVTVPSSSLGTKTYTCNVDHKPSNTKVDKRV[letters of human IgG4 Fc with S228P L235E V308P R409K (EU numbers) omitted]
light: AIQLTQSPSSLSASVGDRVTITCRASQGISSALVWYQQKPGKAPKLLIYDASSLESGVPSRFSGSGSGTDFTLTISSLQPEDFATYYCQQFNDYFTFGPGTKVDIK

Target: Recombinant Human FGF-23 (R&D Systems, Cat No. 2604-FG-025/CF) (human) (UniProt Q9GZV9)
UniProt Q9GZV9, sequence (Q9GZV9 25-251 limits assumed): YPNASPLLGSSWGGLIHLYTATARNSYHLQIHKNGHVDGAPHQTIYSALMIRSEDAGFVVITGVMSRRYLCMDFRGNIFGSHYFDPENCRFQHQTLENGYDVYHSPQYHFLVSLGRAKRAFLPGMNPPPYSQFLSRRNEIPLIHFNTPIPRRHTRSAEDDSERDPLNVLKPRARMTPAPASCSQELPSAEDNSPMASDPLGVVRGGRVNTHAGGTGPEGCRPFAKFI
Test: cell-based or functional assay

Binder | FGF23 neutralizing activity IC50 (luciferase promoter assay) [ng/mL]
B1 | 13.3
B2 | 5.2
B3 | 14.4
B4 | 4.1

From patent publication US20250163140A1
